Assay results from PubChem BioAssay AID1508642 (National Center for Advancing Translational Sciences (NCATS), 2021).
About 200 (0.47%) of roughly 43,000 compounds were called active. Inconclusive results (about 12%) are left out. Calls follow the shape of the dose curve; as a rule, active = well fitted cell-killing curve with a large enough effect; inconclusive = small, poorly fitted or top-dose-only effect, or effect the other way; inactive = flat fitted curve, though single readings scatter. The list shows a part of the results.

Assay: Cell viability qHTS assay in S16 Pmp22-F2sN cells; also: nearly all actives have a fitted effect of over 65% in size
Settings: S16 Pmp22-F2sN Schwann cells viability, CellTiter-Glo, 24 h; series mostly up to 57.5 µM; activity change, negative = cytotoxicity: at the top concentration
How it was run: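 S16 Pmp22-F2sN Schwann cells (500-1,000/well) in phenol-red-free DMEM with 10% FBS received 23 nL compound by pin tool for 24 h at 37 °C. Viability was then read as CellTiter-Glo luminescence after 15 min at room temperature.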
% is scaled to controls: 0 for no effect and ±100 for the full control effect; potency is read from the fitted curve at half-maximal effect.

Structure (SMILES) | activity change, negative = cytotoxicity | Potency
Cc1ccc(-c2cc(N)n(Cc3cccc(Cl)c3)n2)cc1 | inactive: -8.59% | 
CCOC(=O)c1sc2ccccc2c1S(=O)(=O)N1CCN(c2ccccc2F)CC1 | inactive: -15.7% | 
COc1cc(OC)c(NC(=O)Cn2nc(C)n3cccc3c2=O)cc1Cl | inactive: 7.78% | 
CCC(=O)N1CCc2cc(S(=O)(=O)N3CCN(c4ccccc4F)CC3)ccc21 | inactive: -1.01% | 
CC1=C(c2cccc(Cl)c2)S(=O)(=O)NC1=NCc1ccccc1C | inactive: 4.9% | 
COc1ccc(C)cc1NC(=O)CN1C(=O)CSc2ccc(S(=O)(=O)N3CCCC3)cc21 | inactive: 11.3% | 
CCOc1ccc(NC(=O)Nc2cccc(C)n2)cc1 | inactive: 8.3% | 
Cc1ccc(-n2nc3c(N4CCC(C(=O)NCCc5ccccc5)CC4)nnc(C)c3c2C)cc1 |  | active: 28.2 µM
COc1ccc(C)cc1NC(=O)CN(C)S(=O)(=O)c1ccc2c(c1)CCCN2C(C)=O | inactive: -0.363% | 
COCCCN1CN=C(NS(=O)(=O)c2ccc(NC(C)=O)cc2)NC1 | inactive: 14.1% | 
CCN(CC)S(=O)(=O)c1ccc2c(c1)c(=O)c(C(=O)NCCc1ccc(OC)c(OC)c1)cn2C | inactive: 4.87% | 
COC(=O)CNC(c1ccccc1)c1cc(Br)ccc1NC(=O)c1ccc(Cl)cc1 (configuration not stated) | inactive: 7.19% | 
Cc1nc2ccn(Cc3ccccc3)c(=O)c2cc1C(=O)Nc1ccc(F)cc1Cl | inactive: -2.34% | 
COc1cccc(CN(C(=O)c2oc3ccc(Br)cc3c2C)C2CCS(=O)(=O)C2)c1 (configuration not stated) | inactive: 0.127% | 
CC(C)c1ccc(NC(=O)c2ccc3c(c2)CCCN3S(C)(=O)=O)cc1 | inactive: -6.93% | 
O=C(Nc1ccc2c(c1)CCCN2C(=O)c1cccs1)c1c(F)cccc1F | inactive: -2.81% | 
Cc1ccc(N2CC(NC(=O)c3ccc(S(=O)(=O)N4CCCC4)cc3)CC2=O)cc1 (configuration not stated) | inactive: -3.48% | 
COc1ccc(-c2c(C)c3cc(OC(=O)N4CCOCC4)ccc3oc2=O)cc1 | inactive: -5.41% | 
CCOc1ccccc1NC(=O)Cn1c(=O)n(CCCC(=O)NCCc2ccc(C)cc2)c(=O)c2ccccc21 | inactive: -7.27% | 
CCc1ccc(CNC(=O)CN(c2ccc(C)cc2)S(=O)(=O)N(C)C)cc1 | inactive: -0.622% | 
COc1ccc(OC)c(CCNC(=O)C2CCN(c3ncnc4c3nc3n4CCCCC3)CC2)c1 | inactive: -3.03% | 
CSc1ccc(CNC(=O)C2CCN(c3nnc(-n4cccc4CNc4ccc(C)cc4)s3)CC2)cc1 | inactive: -15% | 
N#Cc1c(-n2ncnc2-c2ccc(Br)cc2)sc2c1CCCCC2 | inactive: 13.1% | 
O=C(Cn1cc(SCc2ccccc2)c2ccccc21)N1CCCCC1 | inactive: -1.99% | 
COc1ccc(-c2nc(C)c(CCNC(=O)C(=O)Nc3c(C)cccc3C)s2)cc1OC | inactive: 23% | 
Oc1c(C(c2ccccc2F)N2CCCCC2)sc2nc(-c3ccco3)nn12 (configuration not stated) | inactive: 4.12% | 
CC(=O)c1cccc(NC(=O)CSc2nc(=O)n(Cc3cccnc3)c3c2CCC3)c1 | inactive: 1.75% | 
